Measured values from patent publication US20020012979A1, “VITAMIN C PRODUCTION IN MICROORGANISMS AND PLANTS” (priority 1998, published 2002).

Experiments:
Strain UV77-247 [1] = experiment: Conversion of compounds to AA by growing cells of strain UV77-247; format: cell-based, Prototheca; settings: for Ascorbic Acid, 25.5h: growing cells UV77-247, 25.5h; for Ascorbic Acid, 44h: growing cells UV77-247, 44h; for AA/A620: growing cells UV77-247, time not printed for this column
Method: (§1) For secondary screening of flask cultures, cells were inoculated into 50 mL of standard flask medium in 250 mL baffled shake flasks, and incubated on a rotary shaker at 180 rpm until glucose depletion (24-48 hours). A second series of flasks of Mg-sufficient standard medium was inoculated from the first set to a cell density of 0.15 A620, and incubated for 24 hours. A third series of Mg-limiting flask medium was inoculated from the second set by a 1/50 dilution and incubated for 96 hours. Flasks were sampled for AA analysis and cell density measurements during this time as required. Aliquots for supernatant AA analysis were centrifuged at 5000×g for 5 min. Aliquots for total whole broth AA analysis were first extracted for 15 min with an equal volume of 5% trichloroacetic acid (TCA) before centrifugation. Aliquots of the resulting supernates were removed for either colorimetric assay or HPLC analysis.
(§2) For colorimetric assay of AA, a modification of the method of Omaye, et al. (1979. Meth. Enzymol. 62:3-11) was used. Twenty-five μL aliquots of culture supernates were added to wells of 96-well microplates, and 125 μL of color reagent was added. The color reagent consisted of four parts 0.5% aqueous 2,2′-dipyridyl and one part 8.3 mM ferric ammonium sulfate in 27% (v/v) o-phosphoric acid, the two components being mixed immediately before use. After one hour, the absorbance at 520 nm was read. AA concentration was calculated by comparison of the absorbances of AA standards.
(§3) HPLC analysis was based on that of Running, et al., (1994). Supernates were chromatographed on a Bio-Rad HPX-87H organic acid column (Bio-Rad Laboratories, Richmond, Calif.) with 13 mM nitric acid as solvent, at a flow rate of 0.7 mL/min at room temperature. Detection was at either 254 nm using a Waters 441 detector (Millipore Corp., Milford, Mass.), or at 245 nm using a Waters 481 detector. This system can distinguish between the L- and D-isomers of AA.
(§4) Cells were washed twice and resuspended in complete medium with the glucose substituted by one of the compounds listed below. Cell suspensions were incubated for 24 hours at 35° C. with shaking, and the entire suspension was extracted with TCA as above and assayed for AA.

Strain UV77-247 [2] = experiment: Conversion of compounds to AA by resting cells of strain UV77-247; format: cell-based, Prototheca; settings: for Ascorbic Acid, 25.5h: resting cells UV77-247, 25.5 h; for Ascorbic Acid, 30 h: resting cells UV77-247, 30 h; for Ascorbic Acid, 47 h: resting cells UV77-247, 47 h
Method: as §1, §2, §3, §4

[3] = substrate 50 mM, resting cells UV77-247, 24 hours
[4] = substrate 50 mM, resting cells UV77-247, 24 hours at 35° C.
[5] = substrate 10 mM, resting cells UV77-247, 24 hours

| Compound | Ascorbic Acid, 25.5h (Strain UV77-247 [1]) [mg/L] | Ascorbic Acid, 44h (Strain UV77-247 [1]) [mg/L] | AA/A620 (Strain UV77-247 [1]) | AA Relative to No Substrate Control (Strain UV77-247 [2]; [3]) | Total AA (Strain UV77-247 [2]; [4]) [mg/L] | Ascorbic Acid, 25.5h (Strain UV77-247 [2]) [mg/L] | Ascorbic Acid, 30 h (Strain UV77-247 [2]) [mg/L] | Ascorbic Acid, 47 h (Strain UV77-247 [2]) [mg/L] | AA Relative to No Substrate Control (Strain UV77-247 [2]; [5]) | Total AA (Strain UV77-247 [2]; [5]) [mg/L] |
| --- | --- | --- | --- | --- | --- | --- | --- | --- | --- | --- |
| O=CC[C@@H](O)[C@H](O)[C@H](O)CO [2-deoxy-D-glucose] | 181 | 227 | 47 |  |  |  |  |  |  |  |
| O=C(O)C(=O)[C@@H](O)[C@H](O)[C@H](O)CO [2-keto-D-gluconic acid] | 182 | 255 | 48 | −1 | 341 |  |  |  |  |  |
| O=C(CO)[C@@H](O)[C@H](O)[C@H](O)CO [D-fructose] | 181 | 383 | 65 | 248 | 590 | 402 | 408 | 367 |  |  |
| O=C[C@H](O)[C@@H](O)[C@@H](O)[C@H](O)CO [D-galactose] | 185 | 380 | 64 | 200 | 542 | 352 | 361 | 337 |  |  |
| O=C(O)[C@H](O)[C@@H](O)[C@H](O)[C@H](O)CO [D-gluconic acid] | 178 | 262 | 52 | −33 | 309 |  |  |  |  |  |
| O=C1O[C@H](CO)[C@@H](O)[C@H](O)[C@H]1O [D-gluconolactone] | 130 | 190 | 33 | 40 | 382 |  |  |  |  |  |
| O=C[C@H](O)[C@@H](O)[C@H](O)[C@H](O)CO [D-glucose] | 178 | 398 | 67 | 242 | 584 | 395 | 404 | 351 | 46 | 388 |
| O=CC(=O)[C@@H](O)[C@H](O)[C@H](O)CO [D-glucosone] | 176 | 362 | 64 | 247 | 589 | 465 | 462 | 354 |  |  |
| O=C[C@H](O)[C@H]1OC(=O)[C@@H](O)[C@H]1O [D-glucuronolactone] | 165 | 218 | 44 | −13 | 329 |  |  |  |  |  |
| O=C1OC(C(O)CO)C(O)C1O [D-gulono-γ-lactone] |  |  |  | 24 | 366 |  |  |  |  |  |
| O=C1O[C@H]([C@H](O)CO)C(O)=C1O [D-isoascorbic acid] |  |  |  |  |  |  |  |  | −12 | 330 |
| O=C[C@@H](O)[C@@H](O)[C@H](O)[C@H](O)CO [D-mannose] | 228 | 488 | 87 |  |  | 448 | 462 | 399 |  |  |
| O=C1O[C@H]([C@@H](O)CO)[C@@H](O)[C@@H]1O [L-galactono-γ-lactone] | 214 | 342 | 68 | 476 | 818 | 644 | 681 | 749 |  |  |
| O=C[C@@H](O)[C@H](O)[C@H](O)[C@@H](O)CO [L-galactose] | 249 | 506 | 112 | 623 | 965 | 667 | 718 | 620 |  |  |
| O=C1O[C@H]([C@@H](O)CO)[C@H](O)[C@@H]1O [L-gulono-γ-lactone] | 152 | 195 | 39 |  |  |  |  |  |  |  |
| O=C(O)[C@H](O)[C@@H](O)[C@H](O)[C@@H](O)CO [L-idonate] | 182 | 232 | 49 | −46 | 296 |  |  |  |  |  |
| O=CC(=O)[C@@H](O)[C@H](O)[C@@H](O)CO [L-sorbosone] | 178 | 160 | 34 | 0 | 342 |  |  |  |  |  |
